Drawing on PubChem BioAssay AID463173 (ICCB-Longwood Screening Facility, Harvard Medical School, 2010), this text covers survival for 87 compounds.

In all, about 52,000 compounds went through this assay and about 1,700 (3.3%) were called active. Cut-off read from the data, not from the text of the source: active = survival mostly below about 52% (no sharp cut-off); inactive = mostly above about 56%. Some of the results follow.

This test deals with Wild type. In words: growth inhibition of S. aureus wild type versus tarO mutant, primary screen, teichoic acid synthesis inhibitors, RN4220, OD600 (AID 463173). The conditions noted are these: S. aureus RN4220 wild type/DeltatarO growth, OD600, 18 h, active compounds read low, screened at 18.75 µg/mL (by protocol).
Turning to `O=c1cc(CSc2ncn[nH]2)[nH]c2ccc(F)cc12`, the survival was inactive: 80%. Turning to `CCOC(=O)C1CCC(CN(Cc2ccc(OC)cc2)S(=O)(=O)c2ccc(F)c(C(=O)Nc3ccc(C)c(C)c3)c2)CC1` (configuration not stated), the survival is inactive: 73%. The value for `CCc1ccc(NS(=O)(=O)c2ccc3oc(=O)c4ncn(CC)c4c3c2)cc1` was inactive: 96%. Regarding `CCCc1nc2ccc(NC(=O)c3ccco3)cc2c(=O)n1Cc1ccccc1Cl`, the survival is inactive: 101%.

In the case of `CCC1CN(C(=O)N2CCC(C(=O)NCCc3cc(OC)ccc3OC)CC2)c2ccccc2O1` (configuration not stated), the survival was inactive: 81%. For the compound `O=C(NN=C1CCCCC1)c1n[nH]c2c1CCC2`, the survival was inactive: 111%. As to `CCN(CC)S(=O)(=O)c1ccc2c(c1)N(CC(=O)N1CCN(c3cccc(Cl)c3)CC1)C(=O)CO2`, the survival was inactive: 71%. The value for `O=C(CN1C(=O)c2ccccc2C1=O)Nc1cccnc1` was inactive: 102%; that for `CN(C)C1(CNC(=O)COc2ccc([N+](=O)[O-])cc2)CCCCC1` was inactive: 107%. On to `COc1cccc(-n2cc(C(=O)Nc3cccc(C(F)(F)F)c3)c3ccccc3c2=O)c1`, for which the survival is inactive: 88%. Turning to `CC(C)Oc1ccc(CNC(=O)c2ccc(CS(=O)c3cccc(Cl)c3)o2)cc1` (configuration not stated), the survival is inactive: 90%.

In the case of `COc1ccccc1N1CCN(C(=O)Cn2ncc3ccsc3c2=O)CC1`, the survival is inactive: 127%.

Regarding `Cc1ccc(NC(=O)N2CCc3cc(S(=O)(=O)N4CCC(C)CC4)ccc32)cc1`, the survival was inactive: 119%. Regarding `O=C(Cn1nnc(-c2ccccc2NC(=O)c2cnccn2)n1)Nc1ccc2c(c1)OCCO2`, the survival was inactive: 117%. Turning to `CCN(C(=O)Cn1c(=O)n(CCCS(=O)(=O)C2CCCCC2)c(=O)c2ccccc21)c1cccc(C)c1`, the survival was inactive: 112%. The value for `CCn1c(CN2CCOCC2)nc2cc(NC(=O)c3ccccc3[N+](=O)[O-])ccc21` was inactive: 81%; that for `CC1CCN(C(=O)Cn2c(=O)n(CCCCCC(=O)NCc3ccccc3Cl)c(=O)c3sccc32)CC1` was inactive: 94%; that for `CC(=O)Nc1cc(-c2nc3cc(Cl)ccc3o2)ccc1C` was inactive: 86%. With `CCn1cnc2sc(C(=O)Nc3ccccc3)c(C)c2c1=O` the figure was inactive: 107%. The value for `Cc1ccc(Cl)cc1Nc1nn2c(=O)c3ccc(C(=O)Nc4ccc(F)cc4)cc3nc2s1` was inactive: 113%; that for `Cc1ccc(NC(=O)CSCC(=O)O)cc1` was inactive: 103%; that for `Cc1cc(Cl)ccc1NC(=O)Cn1nc(C)c2c(C)n(-c3ccccc3)nc2c1=O` was inactive: 45%. On to `CCN(CC)CC(=O)Nc1ccc(-c2ccc(NC(=O)CN(CC)CC)cc2)cc1`, for which the survival was inactive: 104%. Turning to `Cc1[nH]n(-c2ccccc2)c(=O)c1C(c1cc(Cl)ccc1O)c1c(C)[nH]n(-c2ccccc2)c1=O`, the survival is inactive: 60%. As for `CCCCC(c1nnnn1CCc1ccccc1)N1CCN(C2CCCC2)CC1` (configuration not stated), the survival was inactive: 101%. The value for `COCCCNc1nc2c(S(=O)(=O)c3ccccc3)nnn2c2ccc(Cl)cc12` was inactive: 92%. With `O=C(NCc1cccs1)c1nn(-c2ccccc2Cl)nc1CO` the figure was inactive: 116%. `CC1=C(C(=O)Nc2ccccc2)C(c2ccccc2C)n2nc(SCC(=O)c3ccc(C)cc3)nc2N1` (configuration not stated): the survival was inactive: 91%. In the case of `CCOC(=O)c1ccccc1NC(=O)N1CCN(Cc2cc(=O)n3nc(-c4ccccc4)sc3n2)CC1`, the survival was inactive: 84%. With `COC(=O)c1c(-c2cccs2)csc1NC(=O)c1cccc(Cl)c1` the figure was inactive: 109%. The value for `COC(=O)c1c(-c2cccs2)csc1NC(=O)c1ccc(Br)cc1` was inactive: 68%.

For `Cc1cccc(NC(=O)CSc2nc(-c3cccs3)cc(C(F)(F)F)c2C#N)c1C`, the survival is inactive: 94%. Regarding `O=C(NCCc1csc(-c2ccc(C(F)(F)F)cc2)n1)c1ccc(F)c(F)c1`, the survival is inactive: 72%. With `O=C(Nc1ccccc1Cl)NC1(C(=O)N2CCCCC2)CCCCC1` the figure was inactive: 110%; with `CCOc1ccc(-c2cc(CCCC(=O)NCCc3ccc(Cl)cc3)no2)cc1`, inactive: 83%. The value for `CCc1ccc(NC(=O)CCS(=O)(=O)c2cc3c(cc2Cl)NC(=O)CO3)cc1` was inactive: 83%; that for `CC(O)CNCc1ccc2c(c1)OCO2` (configuration not stated) was inactive: 90%. `CCN(c1cccc(C)c1)S(=O)(=O)c1ccc(-n2cccn2)cc1`: the survival is inactive: 69%. `Cc1ccc(C(=O)N2CCc3cc(CNC(=O)CSc4ccccc4)ccc32)cc1`: the survival was inactive: 81%. Regarding `Cc1ccc(-c2cc(C(=O)NCc3cnn(C)c3C)c3ccccc3n2)cc1C`, the survival was inactive: 79%. The value for `CCN(c1ccccc1)S(=O)(=O)c1cc(Br)cc2c1N(C(=O)C1CC1)CC2` was inactive: 82%.

With `Cc1cccc(N(C(=O)c2csnn2)C(C(=O)NC2CCCCC2)c2ccco2)c1` (configuration not stated), the survival was inactive: 109%. In the case of `Cc1cccc(-c2c3c(=O)n(C)c(=O)n(C)c3c3c(C)nc4ccccc4n23)c1`, the survival is inactive: 133%. With `N#Cc1ccc(S(=O)(=O)N2CCC(Oc3cccc(C(F)(F)F)c3)CC2)cc1` the figure was inactive: 84%; with `COc1cc(OC)c(OC)cc1CN1CCc2nc(Nc3ccc4c(c3)OCCO4)ncc2C1`, inactive: 89%; with `CCCNC(=O)C1=CC(c2ccc3c(c2)OCO3)=NS(=O)(=O)N1C`, inactive: 86%.

`COc1ccc(CNC(=O)C(=O)Nc2c3c(nn2-c2ccccc2)CSC3)cc1`: the survival was inactive: 117%.

Turning to `Cn1c(=O)c2c(nc(N3CCOCC3)n2Cc2cccc(Br)c2)n(C)c1=O`, the survival was inactive: 73%. The value for `Cc1ccccc1CNC(=O)Cc1ccc(NC(=O)N2CCCCc3ccccc32)cc1` was inactive: 81%; that for `COc1ccc(N2CCN(C(CNC(=O)C(=O)NCc3cccnc3)c3cccnc3)CC2)cc1` (configuration not stated) was inactive: 106%. With `Cc1[nH]n2c(=O)cc(-c3ccc(Cl)cc3)nc2c1-c1ccccc1` the figure was active: -17%; with `Cc1c(C(=O)N2CCCCC2)c(S(=O)(=O)NCc2ccc(N(C)C)cc2)c(C)n1C`, inactive: 128%. Consider `Cc1nn2c(-c3ccco3)ccnc2c1-c1ccc(Br)cc1`, for which the survival was inactive: 70%. With `CCOc1ccc(C(=O)c2cn(CC(=O)Nc3cccc(OC)c3)c3cc4c(cc3c2=O)OCCO4)cc1` the figure was inactive: 147%; with `COc1ccc(CNC(=O)c2ccc3nc(CCc4ccccc4)oc3c2)cc1`, active: -2%; with `COc1ccccc1CNC(=O)C(C)n1ccc2cc(S(=O)(=O)N3CCCC3)ccc21` (configuration not stated), inactive: 71%.

Regarding `Cc1ccc(C2Nc3cc(C)c(C)cc3-n3c(-c4ccccc4)c4c(=O)n(C)c(=O)n(C)c4c32)o1` (configuration not stated), the survival is inactive: 77%. The value for `Cc1cccc(N2CCN(C(=O)C3CCN(C(=O)c4cc5sccc5n4C)CC3)CC2)c1C` was inactive: 57%. The value for `CCOc1ccc(NC(=O)C2CCN(c3nnc(C)c4c(C)n(-c5ccccc5)nc34)CC2)cc1` was inactive: 76%; that for `Cc1ccc(NC(=O)CSc2nc3c([nH]c4ccccc43)c(=O)n2-c2ccccc2)cc1Cl` was inactive: 72%; that for `Cc1ccc(-c2[nH]c3c(c2-c2c(-n4cccc4)n(C)c(=O)[nH]c2=O)c(=O)[nH]c(=O)n3C)cc1` was inactive: 82%. As for `CCOC(=O)c1c(C)oc2nc(C)nc(N3CCN(c4ccccc4F)CC3)c12`, the survival is inactive: 72%. For `Cc1ccc(F)cc1NC(=O)CCc1c(C)nn(-c2ccc(N3CCOCC3)nn2)c1C`, the survival was inactive: 113%.

For the compound `CC1Cn2c(C(=O)NCCc3ccc(Cl)cc3)cc3cccc(c32)S1` (configuration not stated), the survival is inactive: 91%. For the compound `N#C/C(=C\c1ccc[nH]1)C(=O)N1CCc2ccccc2C1`, the survival is inactive: 109%. The value for `Cc1ccc2[nH]cc(S(=O)(=O)c3ccc(C)c(C)c3)c(=O)c2c1` was inactive: 77%; that for `CSc1ccc(C2CC(=O)Oc3c2c(=O)n(C)c2ccccc32)cc1` (configuration not stated) was inactive: 69%. With `Cc1c(C(=O)N2CCCC2)oc2c1-c1nn(CC(=O)NCc3ccccc3Br)cc1CC2`, the survival is inactive: 81%. With `Cc1ccc(/C=C/c2onc(C)c2S(=O)(=O)N2CCC(C(=O)N3CCOc4ccc(C)cc43)CC2)cc1` the figure was inactive: 124%; with `Cc1nnc(N(C)C(=O)Cc2ccc3c(c2)OCO3)s1`, inactive: 109%. For `COc1ccc(NC(=O)CCS(=O)(=O)c2nc(-c3ccc4c(c3)OCO4)cc(C(F)(F)F)n2)cc1`, the survival is inactive: 81%. With `COc1ccc(C)cc1NC(=O)CCc1c(C)nn(-c2ccc(N3CCCCC3)nn2)c1C` the figure was inactive: 71%; with `CC(c1ccccc1)n1cc(C(=O)NCCCN2CCCC2=O)nn1` (configuration not stated), inactive: 116%; with `CC1C(=O)CCNC1c1ccccc1` (configuration not stated), inactive: 95%.

For the compound `O=C(CN1C(=O)COc2ccc(S(=O)(=O)N3CCCCCC3)cc21)Nc1cccc(Cl)c1`, the survival was inactive: 53%. With `COc1ccc(-c2cc(C(=O)Oc3ccc(C)cc3)c3cc(C)ccc3n2)cc1` the figure was inactive: 22%. With `CC1CCN(c2nn3c(=O)c(C(=O)NCCc4ccccc4)cnc3s2)CC1` the figure was inactive: 80%; with `Cc1cc(=O)n(C(C)C(=O)N2CCCc3ccccc32)c2c1c(C)nn2-c1ccccc1` (configuration not stated), inactive: 115%; with `CC(=O)N1CCc2c(sc3nc(SCC(C)C)n(-c4ccc(C)c(Cl)c4)c(=O)c23)C1`, inactive: 44%. The value for `Cc1ccc(-c2nnc(Nc3ccc(OC(F)(F)Cl)cc3)c3ccccc23)cc1S(=O)(=O)NC(C)(C)CO` was inactive: 81%. Consider `Cc1nc2scc(C)n2c(=O)c1S(=O)(=O)Nc1ccc(N2CCN(S(C)(=O)=O)CC2)cc1`, for which the survival was inactive: 84%. Consider `O=C(Nc1ccc(-c2nc3cc(NC(=O)c4ccc(F)cc4)ccc3o2)cc1)c1ccc(F)cc1`, for which the survival was inactive: 70%.

For `CCc1nn2c(=O)cc(COC(=O)c3ccc(NC(=O)CCc4ccccc4)cc3)nc2s1`, the survival was inactive: 78%. For `O=C(Nc1cccnc1)c1ccccc1Oc1ccccc1`, the survival was inactive: 107%. As to `COc1cccc(C2(O)CCN(C(=O)C3CCC3)CC2)c1`, the survival was inactive: 99%.

Take `O=C(COc1ccccc1)N(Cc1cccnc1)c1nc2c(F)cccc2s1`: the survival is inactive: 69%. Consider `Nc1ccc(NC(=O)c2cccc(C(=O)Nc3ccc(N)cc3Cl)c2)c(Cl)c1`, for which the survival is inactive: 144%.
